# Source: article PMC6919601, “Identification of Plasmodium dipeptidyl aminopeptidase allosteric inhibitors by high throughput screening” (PLoS ONE, 2019)
# Values joined by “and” are separate entries in the source; they are usually repeats but may differ in a detail not shown here. Equal entries are not always repeated. About 230 (0.21%) of roughly 110,000 compounds showed an effect of 50% or more. The list shows a part of the results.
# Target: DPAP1 (Plasmodium falciparum, UniProt Q8IIJ9)
# Test: primary screen, percent inhibition; read by cleavage of a fluorogenic dipeptide substrate; higher = more effect of the substance
# Design: species or system P. falciparum D10 trophozoite lysates; single well
# 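Also: 30 min substrate incubation versus DMSO and 10 µM JCP410 controls.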
# Sequence of DPAP1 (Q8IIJ9 whole entry, looked up): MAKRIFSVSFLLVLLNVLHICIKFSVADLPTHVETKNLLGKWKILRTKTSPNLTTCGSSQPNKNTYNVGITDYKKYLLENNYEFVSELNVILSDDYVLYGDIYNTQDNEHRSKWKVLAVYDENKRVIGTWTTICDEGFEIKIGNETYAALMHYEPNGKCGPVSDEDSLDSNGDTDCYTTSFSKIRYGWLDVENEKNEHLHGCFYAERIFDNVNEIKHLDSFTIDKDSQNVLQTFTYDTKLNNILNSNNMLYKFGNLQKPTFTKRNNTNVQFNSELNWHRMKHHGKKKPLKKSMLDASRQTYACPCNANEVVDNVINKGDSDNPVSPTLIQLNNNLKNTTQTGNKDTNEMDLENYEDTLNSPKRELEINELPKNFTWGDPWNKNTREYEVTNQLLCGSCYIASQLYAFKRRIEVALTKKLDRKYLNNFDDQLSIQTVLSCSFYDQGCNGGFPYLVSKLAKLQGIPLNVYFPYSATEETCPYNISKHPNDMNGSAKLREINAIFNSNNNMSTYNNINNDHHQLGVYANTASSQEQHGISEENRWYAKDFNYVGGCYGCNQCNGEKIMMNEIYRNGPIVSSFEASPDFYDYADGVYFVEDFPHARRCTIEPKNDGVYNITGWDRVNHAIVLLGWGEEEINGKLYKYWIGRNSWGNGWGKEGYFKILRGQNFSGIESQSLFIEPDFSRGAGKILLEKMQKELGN
row,SMILES,% Inhibition @ 10 uM
1,COc1ccc(-c2c(Cc3ccccc3)nn3c(-c4ccccc4)cc(C)nc23)cc1,-0.436%
2,COc1ccc(CCNC(=O)CCc2c(C)nc3c4cccnc4nn3c2C)c(OC)c1,4.74%
3,Cc1cc(C(F)F)nn1CC(=O)Nc1ccccc1Cl,-4.82%
4,O=C(Nc1ccc(O)cc1)/C(=C\c1cccs1)NC(=O)c1ccccc1,0.673%
5,COc1ccc(CC(=O)NCc2cccs2)cc1OC,-3.71%
6,CCN1CCN(Cc2ccc3c(c2)Cc2ccccc2-3)CC1,4.51%
7,N#CCNC(=O)C(NC(=O)OCc1ccccc1)SCc1ccccc1 (stereo not drawn),-6.98%
8,Cc1ccc2[nH]c(C3=C(N)N(C4CCCCCCC4)CC3=O)nc2c1,3.74%
9,CC(NC(=O)C(O)c1ccccc1)c1ccccc1 (stereo not drawn),1.04%
10,CCOc1cc(-c2nc(-c3cc4cc(OC)ccc4nc3O)no2)cc(OCC)c1OCC,-7.33%
11,COc1ccccc1CNC(=O)c1cccc(Cl)c1,-2.36%
12,COc1cccc(NC(=O)c2cc(C)cc(C)c2)c1,1.84%
13,CC1CCN(c2nc3c(c(=O)n(C)c(=O)n3C)n2CC(=O)c2ccccc2)CC1,0.231%
14,COc1ccc(/C=C/C(=O)Nc2nc(C)c(C)s2)cc1OC,5.94%
15,CCOC(=O)c1c(NC(=O)C(C)Oc2ccc(F)cc2)sc2c1CCCC2 (stereo not drawn),5.41%
16,COc1cc2c(cc1OC)CN(Cc1cccs1)CC2,5.55%
17,O=C(c1cc([N+](=O)[O-])ccc1Cl)N1CCN(c2ccc(Cl)cc2)CC1,1.27%
18,O=S(=O)(c1ccccc1)c1nnn2c1nc(NCCc1ccccc1)c1sccc12,-4.04%
19,CN1CCN(C(=O)c2cccc([N+](=O)[O-])c2)CC1,-1.92%
20,c1cn(CCCNC2CCCCCCC2)cn1,-7.02%
21,c1cc2c(cc1C1CCCCC1)c1c3n2CCNC3CCC1 (stereo not drawn),2.86%
22,CC(C)c1ccc(NC(=O)c2cccc(Cl)c2)cc1,0.634%
23,Cn1c(=O)c2c(nc(SCc3cccc(Br)c3)n2C)n(C)c1=O,2.67%
24,Cc1nc(O)nc(O)c1C1N2CC3(C)CN1CC(c1ccccc1)(C2)C3=O (stereo not drawn),2.89%
25,Cc1cccc(NC(=O)COc2ccc(Cl)cc2Cl)c1,2.38%
26,CCOC(=O)C1=C(CN2CCc3ccccc3C2)NC(=O)NC1c1cccs1 (stereo not drawn),-0.0621%

row,SMILES,% Inhibition @ 10 uM
1,Cc1csc(NC(=O)C(CC(C)C)NS(=O)(=O)c2ccc3nc(C)sc3c2)n1 (stereo not drawn),2.12%
2,COc1ccc(CCNCc2cccc(Cl)c2)cc1OC,-0.467%
3,COc1cccc(C(c2c(O)nc(O)nc2O)N2CCCC(C)C2)c1OC (stereo not drawn),1.86%
4,c1ccc(-c2nc3c4cnn(-c5ccccc5)c4ncn3n2)cc1,-6.09%
5,CCN(CC)CC(=O)Nc1c2c(nc3ccccc13)N(c1cccc(C)c1)CC2,2.22%
6,Cc1cccc(NS(=O)(=O)c2ccc(F)cc2)c1C,0.62%
7,O=C(CCc1ccccc1)Nc1ccc(NS(=O)(=O)c2ccccc2)cc1,-5.13%
8,O=C(c1sc2cccc(Cl)c2c1Cl)N(Cc1ccco1)C1CCS(=O)(=O)C1 (stereo not drawn),-6.5%
9,CC(NC(=O)c1cc(O)nc2ccc(Br)cc12)c1ccccc1 (stereo not drawn),-9.35%
10,COc1ccc(CN2CCN(Cc3ccco3)CC2)cc1OCc1ccccc1,-3.06%
11,COc1cccc2cc(S(=O)(=O)c3ccc(C(C)C)cc3)c(=O)oc12,-3.1%
12,CN1CCN(C(=O)c2ccc(-c3ccccc3)cc2)CC1,2.6%
13,CCn1cc(CNC(=O)c2cc(-c3ccc4c(c3)OCO4)nc3ccccc23)c(C)n1,-7%
14,CCCCOc1ccc(OCC(=O)Nc2nc3ccccc3[nH]2)cc1,-1.43%
15,CCOC(=O)c1cc(-c2ccc(OC)c(S(=O)(=O)NCc3ccco3)c2)on1,-7.04%
16,Cc1ccc(S(=O)(=O)Nc2ccc(N3CCOCC3)cc2)cc1,-3.55%
17,CC(=O)c1cccc(NC(=O)CN(Cc2ccc(Cl)cc2)S(=O)(=O)c2ccc(Cl)cc2)c1,1.89%
18,Cc1ccccc1C(=O)Nc1c(C(=O)NC(C)(C)C)oc2ccccc12,-1.98%
19,COc1ccc(-c2cc(C(F)F)n3ncc(C(=O)Nc4cc(OC)c(OC)cc4C(C)=O)c3n2)cc1,0.331%
20,CC1CCC2C(=O)N(c3ccccc3O)C(=O)C2C1 (stereo not drawn),1.02%
21,CC(C)(C)c1ccc(/C=C/C(=O)NCCCn2ccnc2)cc1,0.565%
22,COc1ccc(C2CC(c3ccccc3)=Nc3ccccc3S2)cc1 (stereo not drawn),-3.92%
23,CN(Cc1ccccc1)C(=O)Cn1ncn2cccc2c1=O,-9.31%
24,COc1cccc2c(O)c3c(nc12)OC(C)(C)C3,-0.736%
25,CO/C(=C\c1ccc(OC)cc1)C(=O)c1ccccc1,-2.88%
26,Cc1ccc(C2=NS(=O)(=O)N(C)C(C(=O)N3CCC(C)CC3)=C2)cc1,6.98%

row,SMILES,% Inhibition @ 10 uM
1,CN1CCN(Cc2nnc(S)n2-c2ccc(Cl)cc2)CC1,-2.03%
2,CC1(C)CC(=O)c2c(O)cc(=O)n(-c3ccc(F)cc3)c2C1,-1.07%
3,Cc1c(SCCO)c(O)nc2cc3c(cc12)OCO3,-2.73%
4,N#Cc1ccccc1S(N)(=O)=O,0.776%
5,Cc1ccc(C)n1-c1nnc(N2CCC(C(=O)NCCc3ccc(Cl)cc3)CC2)s1,-4.04%
6,O=C(Nc1ccccn1)C(=O)NC1CCCCC1,-1.75%
7,Cc1ccc(C(C)C)c(OCC(=O)N(Cc2ccc(C)o2)C2CCS(=O)(=O)C2)c1 (stereo not drawn),10.9%
8,COCCCNC(=O)c1sc2cc(Cl)ccc2c1Cl,8.97%
9,CCOc1ccc(N2C(=O)CC(NCCc3ccc(S(N)(=O)=O)cc3)C2=O)cc1 (stereo not drawn),-2.22%
10,COc1cccc(CNC(=O)CNC(=S)N(Cc2ccccc2)Cc2ccccc2F)c1,2.79%
11,Cc1cc(CS)cs1,2.83%
12,Cc1ccsc1/C=c1\sc2nc(-c3ccccc3)nn2c1=O,-5.2%
13,COc1ccc(OC)c(CCNC(=O)C2CCN(c3nnc(-n4cccc4)s3)CC2)c1,2.76%
14,Cc1ccc(CN2CCNC2=O)cc1,-1.59%
15,CCCCCCn1c(=O)c(C(=O)Nc2nc(C)cs2)c(O)c2ccccc21,2.85%
16,OC(CN1CCCC1)Cn1c2ccc(Cl)cc2c2cc(Cl)ccc21 (stereo not drawn),-2.27%
17,Cc1c(Cl)cccc1NC(=O)c1cccs1,-0.192%
18,Cc1ccc(-n2nc(C)c3c2OC(N)=C(C#N)C3c2ccc(F)cc2)cc1 (stereo not drawn),-0.941%
19,O=C(O)CC12CC3CC(C1)CC(n1ncc(NCc4ccco4)c(Cl)c1=O)(C3)C2,0.166%
20,CCCC1C(=O)CC(c2ccccc2)NC1c1ccccc1 (stereo not drawn),-3.35%
21,COc1ccc(CN2COc3c(cc4c5c(c(=O)oc4c3C)CCC5)C2)cc1OC,4.13%
22,CS(=O)(=O)N(CC(=O)Nc1ccc(F)cc1)c1cc(Cl)cc(Cl)c1,-1.61%
23,CCc1ccc2nc(NC3=NCN(CCOC)CN3)nc(C)c2c1,-7.33%
24,CCN(CC)CCCNC(=O)c1ccccc1,1.83%
25,Cc1nnc2c(NCCC3=CCCCC3)nc3ccc(C(=O)c4ccccc4)cc3n12,-1.59%
26,Cc1ccc(C)c(Cn2c(C)c(CNC(C)c3ccccc3)c(C(=O)O)c2C)c1 (stereo not drawn),-0.23%

row,SMILES,% Inhibition @ 10 uM
1,Oc1ccccc1C1=NC(c2cccs2)NC(c2ccc(F)cc2)C1 (stereo not drawn),1.68%
2,Cc1cc(C)c2c(n1)SCC(=O)N2CC(=O)NCCN1CCCCCC1,1.03%
3,Cc1nc(C)c2cc3c(n[n+]2c1C)-c1cccc2cccc-3c12,-3.03%
4,Clc1cccc(N2CCN(Cc3cccc(Br)c3)CC2)c1,-0.127%
5,CCOc1cc(C#N)c(NC(=O)c2cccc(C)c2)cc1OCC,-4.41% and -1.61%
6,COc1ccc(NC(=O)CC2(CC(=O)O)CCCC2)cc1,-0.425%
7,O=C1C(c2cn(Cc3ccccc3)c3ccccc23)CC(c2ccccc2)=NN1Cc1ccccc1 (stereo not drawn),3.31%
8,COC(=O)c1cc(O)nc(SCc2cccc(C)c2)n1,4.47%
9,CCOc1nc(-c2ccccc2)c2cc(Cl)ccc2n1,0.51%
10,O=C(Cn1ccnc1)c1ccc(Cl)cc1Cl,6.8%
11,O=C(O)C(CCCCN1C(=O)C2C3C=CC(C3)C2C1=O)N1C(=O)C2C3C=CC(C3)C2C1=O (stereo not drawn),-2.8%
12,C=CCO/C(O)=C1\C(C)=Nc2nnnn2C1c1cc(OC)c(OC)cc1OC (stereo not drawn),-7.08%
13,O=C(CC(c1ccccc1)c1cc(Cl)ccc1O)NCCCN1CCOCC1 (stereo not drawn),2.46%
14,Cc1ccc(S(=O)(=O)N(C)CC(=O)NCc2ccc(F)cc2)cc1,1.92%
15,O=C(Nc1ccc(Br)c(Br)c1)c1nc[nH]n1,2.65%
16,Fc1cccc(F)c1CN1CCN(c2ccccn2)CC1,1.62%
17,CC(=O)Nc1ccc(S(=O)(=O)Nc2ccc(S(=O)(=O)N3CCCCCC3)cc2)cc1,2.67%
18,CCOCCCNC(=O)C(c1ccc(Cl)cc1)N1CCN(C(=O)c2ccco2)CC1 (stereo not drawn),0.457%
19,O=P(O)(Cc1ccccc1)c1ccccc1,-0.0369%
20,COCc1cc(C)n(CC(=O)Nc2ccc(Cl)cc2Cl)c(=O)c1C#N,1.01%
21,COc1cc2c(cc1OC)C(C(=O)N1CCC(Cc3ccccc3)CC1)C(c1cccnc1)N(C)C2=O (stereo not drawn),-0.503%
22,CC(C)c1nnc(NC(=O)c2cc(=O)c3cc(Cl)ccc3o2)s1,-1.47%
23,COc1cc(OC)cc(C(=O)Nc2ccc3c(c2)OCO3)c1,-12.2%
24,CC(C)CNS(=O)(=O)c1ccc(OCC(=O)Nc2cccc(F)c2)cc1,-3.65%
